Test results reported in patent US8592383B2, “Cycloalkyl-fused tetrahydroquinolines as CRTH2 receptor modulators” (Merck Sharp & Dohme Corp., priority 2011, dated 2013).

target: T1, hCRTH2 (Homo sapiens, UniProt Q9Y5Y4); experiment: biochemical; conditions: Ki (nM), Table A; Radioligand Binding Assay A, [3H]PGD2, HEK-hCRTH2 membranes
T1 sequence (Q9Y5Y4 1-395): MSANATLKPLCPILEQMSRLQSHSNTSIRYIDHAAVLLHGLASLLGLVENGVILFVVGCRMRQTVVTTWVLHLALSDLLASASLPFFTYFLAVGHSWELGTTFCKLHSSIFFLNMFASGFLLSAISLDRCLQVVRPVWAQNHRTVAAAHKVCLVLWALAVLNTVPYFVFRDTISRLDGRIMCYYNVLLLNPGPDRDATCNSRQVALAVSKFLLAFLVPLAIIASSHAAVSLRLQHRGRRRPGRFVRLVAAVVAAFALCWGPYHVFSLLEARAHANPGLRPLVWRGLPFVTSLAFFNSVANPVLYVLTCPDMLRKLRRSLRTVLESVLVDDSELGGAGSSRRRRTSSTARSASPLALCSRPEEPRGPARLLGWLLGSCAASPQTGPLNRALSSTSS

| Ki [nM] | Structure (SMILES) |
| --- | --- |
| 5.1 to 20 | CN(C(=O)CCC(=O)O)C1c2ccccc2N(C(=O)c2ccc(-c3ccccc3)cc2)C2CCCC12 (racemic) [17W] |
| 20.1 to 200 | CN(C(=O)CCC(=O)O)C1c2ccccc2N(C(=O)c2ccc(Cl)cc2)C2CCCC12 (racemic) [17X] |
| 20.1 to 200 | CCc1ccc(C(=O)N2c3ccccc3C(N(C)C(=O)CCC(=O)O)C3CCCC32)cc1 (racemic) [17Y] |
| 20.1 to 200 | CN(C(=O)CCC(=O)O)C1c2ccccc2N(C(=O)c2ccc(Cl)c(Cl)c2)C2CCCC12 (racemic) [17Z] |
| 20.1 to 200 | CC1(N(C(=O)CCC(=O)O)C2c3ccccc3N(C(=O)c3ccccc3)C3CCCC32)CC1 (racemic) [17i, 4-[[cis,cis-4-benzoyl-2,3,3a,4,9,9a-hexahydro-1H-cyclopenta[b]quinolin-9-yl](1-methylcyclopropyl)amino]-4-oxobutanoic acid] |
| 1 to 5 | O=C(O)CCC(=O)N(C1CC1)C1c2ccccc2N(C(=O)c2ccc(-c3ccccc3)cc2)C2CCCC21 (racemic) [18C, 4-[[cis,cis-4-([1,1′-biphenyl]-4-ylcarbonyl)-2,3,3a,4,9,9a-hexahydro-1H-cyclopenta[b]quinolin-9-yl]cyclopropylamino]-4-oxobutanoic acid] |
| 5.1 to 20 | O=C(O)CCC(=O)N(C1CC1)C1c2ccccc2N(C(=O)c2ccc(-n3cccn3)cc2)C2CCCC21 (racemic) [18D, 4-[cyclopropyl[cis,cis-2,3,3a,4,9,9a-hexahydro-4-[4-(1H-pyrazol-1-yl)benzoyl]-1H-cyclopenta[b]quinolin-9-yl]amino]-4-oxobutanoic acid] |
| 5.1 to 20 | O=C(O)CCC(=O)N(C1CC1)C1c2ccccc2N(C(=O)c2cccc(-c3ncccn3)c2)C2CCCC21 (racemic) [18E, 4-[cyclopropyl[cis,cis-2,3,3a,4,9,9a-hexahydro-4-[3-(2-pyrimidinyl)benzoyl]-1H-cyclopenta[b]quinolin-9-yl]amino]-4-oxobutanoic acid] |
| 20.1 to 200 | O=C(O)CCC(=O)N(C1CC1)C1c2ccccc2N(C(=O)c2cccc(-c3cncnc3)c2)C2CCCC21 (racemic) [18F, 4-[cyclopropyl[cis,cis-2,3,3a,4,9,9a-hexahydro-4-[3-(5-pyrimidinyl)benzoyl]-1H-cyclopenta[b]quinolin-9-yl]amino]-4-oxobutanoic acid] |
| 5.1 to 20 | O=C(O)CCC(=O)N(C1CC1)C1c2ccccc2N(C(=O)c2cccc(-c3cncs3)c2)C2CCCC21 (racemic) [18G, 4-[cyclopropyl[cis,cis-2,3,3a,4,9,9a-hexahydro-4-[3-(5-thiazolyl)benzoyl]-1H-cyclopenta[b]quinolm-9-yl]amino]-4-oxobutanoic acid] |
| 20.1 to 200 | CCOc1ncc(-c2cccc(C(=O)N3c4ccccc4C(N(C(=O)CCC(=O)O)C4CC4)C4CCCC43)c2)cn1 (racemic) [18H, 4-[cyclopropyl[cis,cis-4-[3-(2-ethoxy-5-pyrimidinyl)benzoyl]-2,3,3a,4,9,9a-hexahydro-1H-cyclopenta[b]quinolin-9-yl]amino]-4-oxobutanoic acid] |
| 5.1 to 20 | COc1nc(-c2cccc(C(=O)N3c4ccccc4C(N(C(=O)CCC(=O)O)C4CC4)C4CCCC43)c2)cs1 (racemic) [18J, 4-[cyclopropyl[cis,cis-2,3,3a,4,9,9a-hexahydro-4-[3-(2-methoxy-4-thiazolyl)benzoyl]-1H-cyclopenta[b]quinolin-9-yl]amino]-4-oxobutanoic acid] |
| 5.1 to 20 | COc1ncc(-c2cccc(C(=O)N3c4ccccc4C(N(C(=O)CCC(=O)O)C4CC4)C4CCCC43)c2)s1 (racemic) [18K, 4-[cyclopropyl[cis,cis-2,3,3a,4,9,9a-hexahydro-4-[3-(2-methoxy-5-thiazolyl)benzoyl]-1H-cyclopenta[b]quinolin-9-yl]amino]-4-oxobutanoic acid] |
| 20.1 to 200 | O=C(O)CCC(=O)N(C1CC1)C1c2ccccc2N(C(=O)c2ccc(-c3cncnc3)cc2)C2CCCC21 (racemic) [18N, 4-[cyclopropyl[cis,cis-2,3,3a,4,9,9a-hexahydro-4-[4-(5-pyrimidinyl)benzoyl]-1H-cyclopenta[b]quinolin-9-yl]amino]-4-oxobutanoic acid] |
| 20.1 to 200 | CCOc1cnc(-c2ccc(C(=O)N3c4ccccc4C(N(C(=O)CCC(=O)O)C4CC4)C4CCCC43)cc2)nc1 (racemic) [18P, 4-[cyclopropyl[cis,cis-4-[4-(5-ethoxy-2-pyrimidinyl)benzoyl]-2,3,3a,4,9,9a-hexahydro-1H-cyclopenta[b]quinolin-9-yl]amino]-4-oxobutanoic acid] |
| 20.1 to 200 | O=C(O)CCC(=O)N(C1CC1)C1c2ccccc2N(C(=O)c2ccc(-c3ccnnc3)cc2)C2CCCC21 (racemic) [18Q, 4-[cyclopropyl[cis,cis-2,3,3a,4,9,9a-hexahydro-4-[4-(4-pyridazinyl)benzoyl]-1H-cyclopenta[b]quinolin-9-yl]amino]-4-oxobutanoic acid] |
| 5.1 to 20 | COc1ncc(-c2ccc(C(=O)N3c4ccccc4C(N(C(=O)CCC(=O)O)C4CC4)C4CCCC43)cc2)s1 (racemic) [18R, 4-[cyclopropyl[cis,cis-2,3,3a,4,9,9a-hexahydro-4-[4-(2-methoxy-5-thiazolyl)benzoyl]-1H-cyclopenta[b]quinolin-9-yl]amino]-4-oxobutanoic acid] |
| 20.1 to 200 | O=C(O)CCC(=O)N(C1CC1)C1c2ccccc2N(C(=O)c2cccc(-c3ccnnc3)c2)C2CCCC21 (racemic) [18i, 4-[cyclopropyl[cis,cis-2,3,3a,4,9,9a-hexahydro-4-[3-(4-pyridazinyl)benzoyl]-1H-cyclopenta[b]quinolin-9-yl]amino]-4-oxobutanoic acid] |
| 5.1 to 20 | O=C(O)CCC(=O)N(C1CC1)C1c2ccccc2N(C(=O)c2ccc(-c3cncs3)cc2)C2CCCC21 (racemic) [18o, 4-[cyclopropyl[cis,cis-2,3,3a,4,9,9a-hexahydro-4-[4-(5-thiazolyl)benzoyl]-1H-cyclopenta[b]quinolin-9-yl]amino]-4-oxobutanoic acid] |
| 5.1 to 20 | O=C(O)CCC(=O)N(C1CC1)[C@H]1c2cc(F)ccc2N(C(=O)OC2CCc3ccccc3C2)[C@H]2CCC[C@H]21 (mixture of isomers) [22S, 4-(1,2,3,4-tetrahydro-2(RS)-naphthalenyl) (3aS,9R,9aR)-[(3-carboxy-1-oxopropyl)cyclopropylamino]-7-fluoro-1,2,3,3a,9,9a-hexahydro-4H-cyclopenta[b]quinoline-4-carboxylate] |
| 20.1 to 200 | COc1cccc(NC(=O)N2c3ccccc3C(N(C(=O)CCC(=O)O)C3CC3)C3CCCC32)c1 (racemic) [23E, 4-[cyclopropyl[cis,cis-2,3,3a,4,9,9a-hexahydro-4-[[(3-methoxyphenyl)amino]carbonyl]-1H-cyclopenta[b]quinolin-9-yl]amino]-4-oxobutanoic acid] |
| 20.1 to 200 | COc1ccccc1NC(=O)N1c2ccccc2C(N(C(=O)CCC(=O)O)C2CC2)C2CCCC21 (racemic) [23F, 4-[cyclopropyl[cis,cis-2,3,3a,4,9,9a-hexahydro-4-[[(2-methoxyphenyl)amino]carbonyl]-1H-cyclopenta[b]quinolin-9-yl]amino]-4-oxobutanoic acid] |
| 20.1 to 200 | O=C(O)CCC(=O)N(C1CC1)C1c2ccccc2N(C(=O)Nc2ccccc2)C2CCCC21 (racemic) [23G, 4-[cyclopropyl[cis,cis-2,3,3a,4,9,9a-hexahydro-4-[(phenylamino)carbonyl]-1H-cyclopenta[b]quinolin-9-yl]amino]-4-oxobutanoic acid] |
| 20.1 to 200 | COc1ccc(NC(=O)N2c3ccccc3C(N(C(=O)CCC(=O)O)C3CC3)C3CCCC32)cc1 (racemic) [23H, 4-[cyclopropyl[cis,cis-2,3,3a,4,9,9a-hexahydro-4-[[(4-methoxyphenyl)amino]carbonyl]-1H-cyclopenta[b]quinolin-9-yl]amino]-4-oxobutanoic acid] |
| 201 to 7500 | O=C(O)CCC(=O)N(C1CC1)C1c2ccccc2N(C(=O)Nc2ccccc2OC(F)(F)F)C2CCCC21 (racemic) [23i, 4-[cyclopropyl[cis,cis-2,3,3a,4,9,9a-hexahydro-4-[[[2-(trifluoromethoxy)phenyl]amino]carbonyl]-1H-cyclopenta[b]quinolin-9-yl]amino]-4-oxobutanoic acid] |
| 20.1 to 200 | O=C(O)CCC(=O)N(C1CC1)C1c2ccccc2N(S(=O)(=O)c2ccc(Oc3ccccc3)cc2)C2CCCC12 (racemic) [24B, 4-[cyclopropyl[cis,cis-2,3,3a,4,9,9a-hexahydro-4-[(4-phenoxyphenyl)sulfonyl]-1H-cyclopenta[b]quinolin-9-yl]amino]-4-oxobutanoic acid] |
| 20.1 to 200 | COc1ccc(S(=O)(=O)N2c3ccccc3C(N(C(=O)CCC(=O)O)C3CC3)C3CCCC32)cc1 (racemic) [24C, 4-[cyclopropyl[cis,cis-2,3,3a,4,9,9a-hexahydro-4-[(4-methoxyphenyl)sulfonyl]-1H-cyclopenta[b]quinolin-9-yl]amino]-4-oxobutanoic acid] |
| 1 to 5 | O=C(O)COC(=O)N(C1CC1)C1c2ccccc2N(C(=O)c2cccc(OC(F)(F)F)c2)C2CCCC21 (racemic) [32L, [[[cyclopropyl[cis,cis-2,3,3a,4,9,9a-hexahydro-4-[3-(trifluoromethoxy)benzoyl]-1H-cyclopenta[b]quinolin-9-yl]amino]carbonyl]oxy]acetic acid] |
| 5.1 to 20 | CN(CC(=O)O)C(=O)N(C1CC1)C1c2ccccc2N(C(=O)c2ccccc2)C2CCCC21 (racemic) [35D, N-[[[cis,cis-4-benzoyl-2,3,3a,4,9,9a-hexahydro-1H-cyclopenta[b]quinolin-9-yl]cyclopropylamino]carbonyl]-N-methylglycine] |
